Laboratory results reported in patent publication US6172185A, “Antimicrobial cationic peptide derivatives of bactenecin” (priority 1998, dated 2001).
Part of at least one peptide drawing is inferred or uncertain, most often the ends. Where no end group is shown, it is not given here.

Assays:
P.aeruginosa = assay: MIC, modified two-fold microtitre broth dilution; type: cell-based, Pseudomonas aeruginosa; details: Table IIA, linear (Group 1) derivatives
Description: (§1) Bacterial strains for antimicrobial activity testing included Escherichia coli UB1005 and its antibiotic supersusceptible derivative DC2 (Richmond et al., Antimicrob. Agents Chemother. 10:215, 1976), Pseudomonas aeruginosa K799 and its antibiotic-supersusceptible derivative Z61 (Angus et al., Antimicrob. Agents Chemother. 21:299, 1982), Salmonella typhimurium 14028s and its defensin-supersusceptible derivative MS7953s (Fields et al., Science, 243:1059, 1989), Staphylococcus aureus ATCC25923 and a clinical isolate Staphylococcus aureus SAP1007. Other Gram-positive bacterial strains include Staphylococcus epidermidis (clinical isolate) and Enterococcus faecalis ATCC29212, Listeria monocytogenes, Corynebacterium xerosis, Streptococcus pneumoniae ATTC49619, Streptococcus pyogenes ATTC19615, Streptococcus mitis.
(§2) The minimal inhibitory concentration (MIC) of peptides was determined by a modified two-fold microtitre broth dilution method modified from that of Steinberg et al (Steinberg, Antimicrob. Agents Chemother. 41:1738, 1997). Using the classical method (Amsterdam, Antibiotics in Laboratory Medicine (Lorian, V., ed) pp. 72-78, 1991), higher concentrations of peptides tend to precipitate in the LB broth, thus the concentrations of peptides in the sequential wells are not accurate. Also the peptides stick to the most readily available (tissue-culture treated polystyrene) 96-well microtitre plates. Therefore the 2× series of dilutions was performed in Eppendoff tubes (polypropylene) before mixing with LB broth. Serial of two fold dilutions of peptides ranging from 640 μg/ml to 1.25 μg/ml were made in 0.2% BSA, 0.01% acetic acid buffer in the Eppendoff tubes. Ten μl of each concentration was added to each corresponding well of a 96-well microtiter plate (polypropylene cluster; Costar Corporation, Cambridge, Mass.). Bacteria were grown overnight and diluted 10-5 into fresh LB broth or Todd Hewitt broth for Streptococcus. LB medium contained 10 g/1l tryptone and 5 g/yeast extract, with no salt. Todd Hewitt contained 500 g/l beef heart infusion, 20 g/l bacto neopeptone, 2 g/l bacto dextrose, 2 g/l sodium chloride, 0.4 g/l disodium phosphate, 2.5 g/l sodium carbonate. One hundred […] containing about 10^4-10^5 CFU/ml of tested bacteria was added to each well. The plate was incubated at 37° C. overnight. The MIC was taken as the concentration at which greater than 90% of growth inhibition was observed.

Staph. epidermidis = assay: MIC, modified two-fold microtitre broth dilution; type: cell-based, Staphylococcus epidermidis; details: Table IIB, linear derivatives (Group 1)
Description: as §1, §2

S.typhimurium = assay: MIC, modified two-fold microtitre broth dilution; type: cell-based, Salmonella typhimurium; details: Table IIA, linear (Group 1) derivatives
Description: as §1, §2

Strep. mitis = assay: MIC, modified two-fold microtitre broth dilution; type: cell-based, Streptococcus mitis; details: Table IIB, linear derivatives (Group 1)
Description: as §1, §2

Listeria monocytogenes = assay: MIC, modified two-fold microtitre broth dilution; type: cell-based; details: Table IIB, linear derivatives (Group 1)
Description: as §1, §2

Strep. pyogenes = assay: MIC, modified two-fold microtitre broth dilution; type: cell-based, Streptococcus pyogenes; details: Table IIB, linear derivatives (Group 1)
Description: as §1, §2

Staph. aureus = assay: MIC, modified two-fold microtitre broth dilution; type: cell-based, Staphylococcus aureus; details: Table IIB, linear derivatives (Group 1)
Description: as §1, §2

C. xerosis = assay: MIC, modified two-fold microtitre broth dilution; type: cell-based, Corynebacterium xerosis; details: Table IIB, linear derivatives (Group 1)
Description: as §1, §2

Strep. pneumoniae = assay: MIC, modified two-fold microtitre broth dilution; type: cell-based, Streptococcus pneumoniae; details: Table IIB, linear derivatives (Group 1)
Description: as §1, §2

E. coli DC2 = assay: Cytoplasmic membrane potential dissipation, DiS-C3-(5) assay; type: cell-based, Escherichia coli; details: E. coli DC2, relative to MIC
E. coli UB1005 = assay: Outer membrane permeabilization, NPN uptake assay; type: cell-based, Escherichia coli; details: 50% of maximal increase in fluorescence, FIG. 3
Method: Mid-log phase E. coli cells were collected and incubated with NPN in the presence of various concentrations of bactenecin (oxidized), bac2S, bactenecin (reduced). NPN was taken up into cells when the outer membrane was disrupted by the peptides. The uptake of NPN was measured by the increase of fluorescence. Polymyxin B: -.quadrature.-; Bactenecin: -+-; Bac2S: -o-; Bactenecin (Reduced): -.gradient.-
The ability of peptides to permeabilize the outer membrane was determined by the NPN assay of Loh et al. (Loh et al., Antimicrob. Agents Chemother. 19:777, 1984). Cytoplasmic membrane permeabilization was determined by using the membrane potential sensitive cyanine dye DiS-C3-(5) (Sims et al., Biochemistry 13:3315, 1974). The mutant E. coli DC2 with increased outer membrane permeability was used so that DiS-C3-(5) could reach the cytoplasmic membrane. Fresh LB medium was inoculated with an overnight culture, grown at 37° C., and mid-logarithmic phase cells (OD600=0.5-0.6) were collected. The cells were washed with buffer (5 mM HEPES, pH 7.2, 5 mM glucose) once, then resuspended in the same buffer to an OD600 of 0.05. The cell suspension was incubated with […] DiS-C3-(5) until DiS-C3-(5) uptake was maximal (as indicated by a stable reduction in fluorescence due to fluorescence quenching as the dye became concentrated in the cell by the membrane potential), and 100 mM KCl was added to equilibrate the cytoplasmic and external K+ concentration. One ml cell culture was placed in a 1 cm cuvette and desired concentration of tested peptide was added. The fluorescence reading was monitored by using a Perkin-Elmer model 650-10 S fluorescence spectrophotometer (Perkin-Elmer Corp. Norwalk, Conn.), with an excitation wavelength of 622 nm and an emission wavelength of 670 nm. The maximal increase of fluorescence due to the disruption of the cytoplasmic membrane by certain concentration of cationic peptide was recorded. A blank with only cells and the dye was used to subtract the background.
Antimicrobial peptides bind to LPS, displacing the native divalent cations. […]

Row | Substance | MIC P.aeruginosa (P.aeruginosa) [µg/mL] | MIC Staph. epidermidis (Staph. epidermidis) [µg/mL] | MIC S.typhimurium (S.typhimurium) [µg/mL] | MIC Strep. mitis (Strep. mitis) [µg/mL] | MIC Listeria (Listeria monocytogenes) [µg/mL] | MIC Strep. pyogenes (Strep. pyogenes) [µg/mL] | MIC Staph. aureus (Staph. aureus) [µg/mL] | MIC C. xerosis (C. xerosis) [µg/mL] | MIC Strep. pneumoniae (Strep. pneumoniae) [µg/mL] | concentration at which release of DiS-C3-(5) probe (dissipation of membrane potential) starts (E. coli DC2) | concentration causing half maximal outer membrane permeabilization (NPN) (E. coli UB1005) [µg/mL]
1 | RLARIVVIRVAR-NH2 [Bac 2A-NH2, RLARIVVIRVAR-NH2] | 8 | 1 | 32 | 0.25 | 0.25 | 2 | 4 | 0.25 | 16 | – | –
2 | RLSRIVVIRVCR-NH2 [Bac S-NH2, RLSRIVVIRVCR-NH2] | 16 | 2 | > 64 | 0.5 | 0.5 | 8 | 16 | 0.5 | 8 | – | –
3 | RLSRIVVIRVSR [Bac 2S, RLSRIVVIRVSR] | > 64 | 8 | > 64 | 0.5 | 1 | 16 | 16 | 0.5 | > 64 | well below the MIC concentration | 2
4 | RLSRIVVIRVSR-NH2 [Bac 2S-NH2, RLSRIVVIRVSR-NH2] | 16 | 1 | 32 | 0.125 | 0.25 | 2 | 4 | 0.25 | 16 | – | –
